Measurements taken from PubChem BioAssay AID504333 (National Center for Advancing Translational Sciences (NCATS), 2011).
In all, about 360,000 compounds went through this assay and about 16,000 (4.4%) were called active. This list was built around the results that the source calls inconclusive (neither active nor inactive); the mix of calls is not that of the screen. Calls follow the shape of the dose curve; as a rule, active = well fitted inhibition curve with a large enough effect; inconclusive = small, poorly fitted or top-dose-only effect; inactive = no such curve, though single readings can be large or run the other way. Potencies of inconclusive entries are doubtful fits and often do not repeat.
% is scaled to controls: 0 for no effect and ±100 for the full control effect; potency is read from the fitted curve at half-maximal effect; tags tell the direction and shape of the fitted curve.
Also: nearly all actives have a fitted effect of over 60% in size.

The molecules below were run against Bromodomain adjacent to zinc finger domain protein 2B (Homo sapiens) (UniProt Q9UIF8) (assay: qHTS Assay for Inhibitors of BAZ2B). Settings: AlphaScreen BAZ2B-H3K14Ac peptide displacement; activity change, negative = inhibition: at 114 µM (top of the series) unless noted.
Sequence of UniProt Q9UIF8 (Q9UIF8 whole entry, looked up, the tested form may be a part): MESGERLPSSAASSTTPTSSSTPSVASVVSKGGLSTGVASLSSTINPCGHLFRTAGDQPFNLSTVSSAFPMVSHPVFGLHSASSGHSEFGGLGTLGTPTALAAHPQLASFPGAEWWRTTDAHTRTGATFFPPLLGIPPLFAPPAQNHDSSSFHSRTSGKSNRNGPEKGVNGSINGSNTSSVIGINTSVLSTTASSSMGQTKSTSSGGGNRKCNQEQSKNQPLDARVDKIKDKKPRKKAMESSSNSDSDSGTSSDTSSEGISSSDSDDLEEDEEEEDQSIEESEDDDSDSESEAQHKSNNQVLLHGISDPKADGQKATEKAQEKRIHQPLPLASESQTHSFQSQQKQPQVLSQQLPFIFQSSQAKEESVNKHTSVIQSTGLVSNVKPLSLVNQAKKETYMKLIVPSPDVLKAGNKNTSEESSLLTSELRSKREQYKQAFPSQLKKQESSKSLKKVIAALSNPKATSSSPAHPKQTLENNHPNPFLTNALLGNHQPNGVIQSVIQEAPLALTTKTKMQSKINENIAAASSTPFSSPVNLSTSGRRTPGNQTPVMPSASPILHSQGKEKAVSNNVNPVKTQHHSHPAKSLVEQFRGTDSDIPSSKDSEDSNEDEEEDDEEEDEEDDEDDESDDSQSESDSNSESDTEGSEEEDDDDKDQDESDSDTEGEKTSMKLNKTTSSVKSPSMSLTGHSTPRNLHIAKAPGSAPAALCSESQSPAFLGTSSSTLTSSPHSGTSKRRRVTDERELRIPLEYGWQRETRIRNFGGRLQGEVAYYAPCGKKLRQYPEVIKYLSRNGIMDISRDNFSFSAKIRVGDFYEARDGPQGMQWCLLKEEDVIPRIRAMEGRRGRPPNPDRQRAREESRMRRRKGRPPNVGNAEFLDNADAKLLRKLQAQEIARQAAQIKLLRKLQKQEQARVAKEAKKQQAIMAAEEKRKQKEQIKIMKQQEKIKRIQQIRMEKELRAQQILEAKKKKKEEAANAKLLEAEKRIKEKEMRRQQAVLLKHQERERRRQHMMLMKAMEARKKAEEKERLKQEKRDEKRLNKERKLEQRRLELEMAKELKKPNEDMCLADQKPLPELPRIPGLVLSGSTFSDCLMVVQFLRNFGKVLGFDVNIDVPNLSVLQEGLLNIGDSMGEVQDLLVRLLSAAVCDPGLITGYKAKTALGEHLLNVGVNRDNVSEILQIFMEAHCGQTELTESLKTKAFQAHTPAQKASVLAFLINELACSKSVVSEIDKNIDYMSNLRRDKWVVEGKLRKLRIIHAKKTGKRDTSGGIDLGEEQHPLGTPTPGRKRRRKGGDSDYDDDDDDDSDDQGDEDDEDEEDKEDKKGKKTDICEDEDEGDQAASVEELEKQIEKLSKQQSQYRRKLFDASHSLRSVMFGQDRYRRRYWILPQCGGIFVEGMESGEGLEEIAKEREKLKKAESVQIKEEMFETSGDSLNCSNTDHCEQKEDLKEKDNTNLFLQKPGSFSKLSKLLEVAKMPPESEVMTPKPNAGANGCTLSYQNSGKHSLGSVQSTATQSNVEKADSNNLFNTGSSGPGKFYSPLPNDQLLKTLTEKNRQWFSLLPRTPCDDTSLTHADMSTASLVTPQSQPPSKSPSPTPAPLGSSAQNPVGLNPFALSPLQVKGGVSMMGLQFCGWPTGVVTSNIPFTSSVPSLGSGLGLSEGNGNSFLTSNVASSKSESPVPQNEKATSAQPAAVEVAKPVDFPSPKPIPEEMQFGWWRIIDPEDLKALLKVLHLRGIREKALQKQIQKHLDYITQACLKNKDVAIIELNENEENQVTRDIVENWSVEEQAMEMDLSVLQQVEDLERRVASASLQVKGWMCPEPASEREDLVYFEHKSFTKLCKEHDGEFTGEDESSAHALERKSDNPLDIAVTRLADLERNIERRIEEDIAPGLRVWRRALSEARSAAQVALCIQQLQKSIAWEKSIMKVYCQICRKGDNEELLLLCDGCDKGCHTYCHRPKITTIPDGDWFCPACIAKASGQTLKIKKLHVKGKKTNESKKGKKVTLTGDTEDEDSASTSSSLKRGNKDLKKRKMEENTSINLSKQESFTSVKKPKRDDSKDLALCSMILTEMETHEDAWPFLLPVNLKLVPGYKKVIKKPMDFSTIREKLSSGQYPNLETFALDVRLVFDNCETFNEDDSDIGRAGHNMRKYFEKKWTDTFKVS
Procedure, shortened: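 AlphaScreen displacement of biotin-H3(5-23)K14Ac peptide (50 nM final) from BAZ2B (50 nM final) in PBS pH 7.4, 0.01% Tween-20; complex preformed 30 min RT, then compounds (top 110 uM) 30 min RT, beads 20 min dark.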
For Cc1ccc2[nH]c(C)c(/C=C/c3cc[n+](C)cc3)c2c1, the Potency was inconclusive: 79.4 µM [inhibitor, single point].
With CC(=O)Nc1ccc(NC(=O)Cc2ccc(S(=O)(=O)N3CCCCC3)s2)cc1 the Potency was inconclusive: 50.1 µM [inhibitor, partial curve].
In the case of CCc1ccc(NC(=O)CCc2ccc(CC)o2)cc1, the “activity change, negative = inhibition” value is reported as inactive: -1.6%.
With COCc1nnc(NC(=O)CSCc2ccccc2)s1 the Potency was inconclusive: 89.1 µM [inhibitor, single point].
For COc1ccccc1OCC(=O)NCCCn1ccnc1, the Potency was active: 79.4 µM.
In the case of Cc1ccc(C)c(-n2c(SCC(=O)N3CCCC3)nnc2-c2ccccn2)c1, the Potency is reported as active: 31.6 µM.
In the case of CCOc1ccc(OCC)c(NC(=O)CN2CCN(CC(=O)NC(C)C)CC2)c1, the Potency is reported as inconclusive: 79.4 µM [inhibitor, single point].
In the case of C/C(=N\NC(=S)NCc1ccccc1)c1ccccc1, the Potency is reported as inconclusive: 44.7 µM [inhibitor, partial curve].
COC(=O)c1cc(NS(=O)(=O)c2ccc(N3CCCCCC3)c([N+](=O)[O-])c2)cc(C(=O)OC)c1 was tested, and the Potency was inconclusive: 31.6 µM [inhibitor, partial curve].
With COc1ccc(OCC(=O)NC(=S)Nc2ccc(N3CCOCC3)c(Cl)c2)cc1 the Potency was inconclusive: 89.1 µM [inhibitor, single point].
Cc1cccn2c(=O)c3cc(C(=O)NC4CCCC4)sc3nc12 was tested, and the Potency was inconclusive: 3.98 µM [inhibitor, single point].
For COc1ccc(C(=O)NCC(=O)OCC(=O)c2ccc(Cl)cc2)cc1OC, the Potency was inconclusive: 89.1 µM [inhibitor, partial curve, poor fit].
Cc1ccc(-c2nn(-c3ccccc3)cc2C2CC(c3ccccc3)=NN2C(=O)CCC(=O)O)cc1 (centres undefined) was tested, and the Potency was inconclusive: 79.4 µM [inhibitor, single point].
In the case of COc1ccc(-c2nc(C#N)c(N3CCc4ccccc4C3)o2)cc1OC, the Potency is reported as active: 7.08 µM.
With Cc1ccc(C(=O)c2c(N)c(-c3nc(-c4ccc5c(c4)OCO5)cs3)c3ccccn23)cc1C the “activity change, negative = inhibition” value was inactive: 4.62%.
For O=C(O)c1cc2nccc(-c3ccco3)n2n1, the Potency was inconclusive: 79.4 µM [inhibitor, single point].
In the case of COc1ccc(N2CCC(CNC(=S)Nc3cc(C)ccc3C)C2)cc1 (centres undefined), the Potency is reported as active: 31.6 µM.
For COc1ccc(N2CCN(C(=O)c3ccc(CNS(=O)(=O)c4cccc(OC)c4)cc3)CC2)cc1, the Potency was inconclusive: 44.7 µM [inhibitor, partial curve].
CCOC(=O)c1c(/N=C/N(C)C)sc2c1CCC2 was tested, and the Potency was inconclusive: 89.1 µM [inhibitor, single point].
O=C(CN1C(=O)S/C(=C\c2ccc(Cl)cc2)C1=O)NNC(=O)c1ccccc1O was tested, and the Potency was inconclusive: 89.1 µM [inhibitor, single point].
CC1CN(c2nc3c(c(=O)n(Cc4ccc(Cl)cc4)c(=O)n3C)n2C)CC(C)O1 (centres undefined) was tested, and the Potency was inconclusive: 70.8 µM [inhibitor, single point].
For CCc1ccc(CNC(=O)CCCN2C(=O)CCn3nc(-c4cccn4C)cc32)cc1, the Potency was inconclusive: 39.8 µM [inhibitor, partial curve].
In the case of O=C(O)CCc1ccc(-c2ccccc2)n1NC(=O)c1sc2ccccc2c1Cl, the Potency is reported as inconclusive: 70.8 µM [inhibitor, single point].
With O=C(CSc1n[nH]c(-c2ccco2)n1)Nc1sc2c(c1C(=O)Nc1ccccc1)CCCC2 the “activity change, negative = inhibition” value was inactive: -30.6%.
With Cc1ccccc1N(CC(=O)N/N=C/c1ccc(N(C)C)cc1)C(=O)c1ccccc1 the Potency was active: 56.2 µM.
With C=CCN(CC=C)C(=O)COC(=O)c1ccc(Sc2ncn[nH]2)c([N+](=O)[O-])c1 the Potency was inconclusive: 79.4 µM [inhibitor, single point].
For Cc1cc2c(cc1NC(=O)c1ccccc1C)n(C)c(=O)c(=O)n2C, the “activity change, negative = inhibition” value was inactive: -3.16%.
O=C(N/N=C/c1cc(Cl)ccc1O)c1cccnc1 was tested, and the Potency was active: 7.94 µM.
With COc1ccc(CCNC(=O)CCCn2c(=O)c3cccn3c3ccccc32)cc1OC the Potency was inconclusive: 79.4 µM [inhibitor, single point].
With Nc1ccc(OCc2ccccc2)cc1 the Potency was inconclusive: 79.4 µM [inhibitor, single point].
With O=CN1CCN(C(=S)NC(=O)c2ccc(Cl)cc2)CC1 the “activity change, negative = inhibition” value was inactive: -14.6%.
COCc1nnc(NC(=O)CCS(=O)(=O)c2ccccc2)s1 was tested, and the Potency was inconclusive: 89.1 µM [inhibitor, single point].
For O=C(Nc1cccnc1)c1ccc2nc(-c3ccccc3)c(-c3ccccc3)nc2c1, the Potency was inconclusive: 39.8 µM [inhibitor, partial curve].
With COc1ccc(NS(=O)(=O)c2ccc(C)c(C(=O)NCC(c3cccs3)N3CCOCC3)c2)cc1 (centres undefined) the Potency was inconclusive: 89.1 µM [inhibitor, single point].
In the case of C=CCNC(=O)COC(=O)c1c2c(nc3ccccc13)CCC2, the Potency is reported as active: 50.1 µM.
In the case of CC(C)c1ccc2[nH]c3c(c2c1)[C@@H]1CCN2C(=O)CCC[C@H](C3)[C@H]12, the Potency is reported as inconclusive: 79.4 µM [inhibitor, single point].
For CC(Sc1nc2c(c(=O)[nH]1)CCCC2)C(=O)Nc1ccc(S(N)(=O)=O)cc1 (centres undefined), the “activity change, negative = inhibition” value was inactive: -10.9%.
With COc1ccc(-c2csc(Nc3ccc(O)cc3)n2)cc1 the Potency was active: 35.5 µM.
With COc1cccc(CN2CCNC(=O)C2CC(=O)N(C)C2CCCCC2)c1 (centres undefined) the “activity change, negative = inhibition” value was inactive: -19.9%.
With Cc1cc(C)cc(NC(=S)Nc2ccc(Cl)c(Cl)c2)c1 the Potency was inconclusive: 56.2 µM [inhibitor, partial curve].
For Cc1cc(F)ccc1S(=O)(=O)Nc1ccc2oc3c(c2c1)CC(C)CC3 (centres undefined), the Potency was inconclusive: 11.2 µM [inhibitor, full curve].
For COc1ccc(CN(C)CCc2ccccn2)cc1OC, the Potency was active: 31.6 µM.
With CC(C)C[C@@H]1NC(=O)[C@H](C(C)C)NC(=O)c2cc([N+](=O)[O-])cc(I)c2OCC[C@@H](C(N)=O)NC1=O the “activity change, negative = inhibition” value was inactive: -35%.
In the case of CCOC(=O)N1CCN(c2ccc([N+](=O)[O-])cc2F)CC1C (centres undefined), the Potency is reported as inconclusive: 70.8 µM [inhibitor, single point].
